In all, about 2,900 compounds were measured (“IRF Lucia reporter activity, fold change vs agonist alone”: median about 0.9, highest 2% from about 2.8 on). This is one part of the list.
What was measured:
RAW-Dual [1] = experiment: IRF Lucia reporter activity, fold change vs agonist alone; cytotoxicity flag (confluency mask): not cytotoxic; higher = enhanced IRF activity
Method in brief: (§1)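 RAW-Dual macrophages were seeded in DMEM at 50,000 cells/well in 384-well plates, given 50 nL of library stock by pin tool, and given a PRR agonist 1 h later. Plates were held at 37 °C, 5% CO2 for 20 hours, after which supernatant was read for IRF by QuantiLuc luminescence and for NF-κB by QuantiBlue absorbance at 620 nm. Reporter activity is expressed as fold change over wells that received agonist alone. A well was called cytotoxic when IncuCyte confluency fell below 70% of agonist controls in both mask sets.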

RAW-Dual [2] = experiment: IRF Lucia reporter activity, fold change vs agonist alone; higher = enhanced IRF activity; conditions: agonist: MPLA (TLR4) […]
Method in brief: as §1

RAW-Dual [3] = experiment: IRF Lucia reporter activity, fold change vs agonist alone; cytotoxicity flag (confluency mask): cytotoxic (confluency <70% of control); higher = enhanced IRF activity
Method in brief: as §1

[4] = agonist: 3'3'-cGAMP (STING) 10 ug/mL
[5] = library stock concentration (final ~1000-fold dilution): 10 mM, cytotoxicity flag (confluency mask): not cytotoxic
[6] = library stock concentration (final ~1000-fold dilution): 10 mM, cytotoxicity flag (confluency mask): cytotoxic (confluency <70% of control)

For `Cc1cc(/C=C/C#N)cc(C)c1Nc1ccnc(Nc2ccc(C#N)cc2)n1` (library stock concentration (final ~1000-fold dilution): 10 mM), the “IRF Lucia reporter activity” value (RAW-Dual [1]; [4]) was 0.03 and the “IRF Lucia reporter activity” value (RAW-Dual [1]; agonist: LPS (TLR4) 0.1 ug/mL) was 0.489.

With `Cc1cc(/C=C/C#N)cc(C)c1Nc1ccnc(Nc2ccc(C#N)cc2)n1` the “IRF Lucia reporter activity” value (RAW-Dual [2]; [5]) was 0.64.

For `COc1ccc(C(=O)NCc2ccc(OCCN(C)C)cc2)cc1OC.Cl`, the “IRF Lucia reporter activity” value (RAW-Dual [2]; [5]) was 1.

With `COc1ccc(C(=O)NCc2ccc(OCCN(C)C)cc2)cc1OC.Cl` (library stock concentration (final ~1000-fold dilution): 10 mM) the “IRF Lucia reporter activity” value (RAW-Dual [1]; [4]) was 0.999 and the “IRF Lucia reporter activity” value (RAW-Dual [1]; agonist: LPS (TLR4) 0.1 ug/mL) was 1.32.

With `Cc1cc(=O)[nH]c(=S)[nH]1` (library stock concentration (final ~1000-fold dilution): 10 mM) the “IRF Lucia reporter activity” value (RAW-Dual [1]; [4]) was 0.86 and the “IRF Lucia reporter activity” value (RAW-Dual [1]; agonist: LPS (TLR4) 0.1 ug/mL) was 1.1.

With `O=S(=O)(NCCSSCCNS(=O)(=O)c1cc(Cl)ccc1Cl)c1cc(Cl)ccc1Cl` (library stock concentration (final ~1000-fold dilution): 10 mM) the “IRF Lucia reporter activity” value (RAW-Dual [1]; [4]) was 0.0387 and the “IRF Lucia reporter activity” value (RAW-Dual [1]; agonist: LPS (TLR4) 0.1 ug/mL) was 0.385.

In the case of `O.O=c1c(O)c(-c2ccc(O)cc2O)oc2cc(O)cc(O)c12` (library stock concentration (final ~1000-fold dilution): 10 mM), the “IRF Lucia reporter activity” value (RAW-Dual [1]; [4]) is reported as 0.868 and the “IRF Lucia reporter activity” value (RAW-Dual [1]; agonist: LPS (TLR4) 0.1 ug/mL) is reported as 0.795.

In the case of `O.O=c1c(O)c(-c2ccc(O)cc2O)oc2cc(O)cc(O)c12`, the “IRF Lucia reporter activity” value (RAW-Dual [2]; [5]) is reported as 0.967.

`O=C1N=C(O)CN1N=Cc1ccc(-c2ccc([N+](=O)[O-])cc2)o1` (library stock concentration (final ~1000-fold dilution): 10 mM) was tested, and the “IRF Lucia reporter activity” value (RAW-Dual [1]; [4]) was 0.998 and the “IRF Lucia reporter activity” value (RAW-Dual [1]; agonist: LPS (TLR4) 0.1 ug/mL) was 1.07.

In the case of `O=C1N=C(O)CN1N=Cc1ccc(-c2ccc([N+](=O)[O-])cc2)o1`, the “IRF Lucia reporter activity” value (RAW-Dual [2]; [5]) is reported as 0.99.

For `COCCNCc1ccc(-c2cc3nccc(Oc4ccc(NC(=O)C5(C(=O)Nc6ccc(F)cc6)CC5)cc4F)c3s2)nc1` (library stock concentration (final ~1000-fold dilution): 10 mM), the “IRF Lucia reporter activity” value (RAW-Dual [1]; [4]) was 0.0586 and the “IRF Lucia reporter activity” value (RAW-Dual [1]; agonist: LPS (TLR4) 0.1 ug/mL) was 0.115.

`CC(=O)OC1(C(C)=O)CCC2C3C=C(Cl)C4=CC(=O)CCC4(C)C3CCC21C` (centres undefined) was tested, and the “IRF Lucia reporter activity” value (RAW-Dual [2]; [5]) was 1.03.

For `CC(=O)OC1(C(C)=O)CCC2C3C=C(Cl)C4=CC(=O)CCC4(C)C3CCC21C` (centres undefined) (library stock concentration (final ~1000-fold dilution): 10 mM), the “IRF Lucia reporter activity” value (RAW-Dual [1]; [4]) was 1.13 and the “IRF Lucia reporter activity” value (RAW-Dual [1]; agonist: LPS (TLR4) 0.1 ug/mL) was 0.873.

In the case of `CN1CCc2c(c3ccccc3n2Cc2ccccc2)C1.CN1CCc2c(c3ccccc3n2Cc2ccccc2)C1.O=S(=O)(O)c1cccc2c(S(=O)(=O)O)cccc12` (library stock concentration (final ~1000-fold dilution): 2 mM), the “IRF Lucia reporter activity” value (RAW-Dual [1]; [4]) is reported as 1.04 and the “IRF Lucia reporter activity” value (RAW-Dual [1]; agonist: LPS (TLR4) 0.1 ug/mL) is reported as 1.

In the case of `CN1CCc2c(c3ccccc3n2Cc2ccccc2)C1.CN1CCc2c(c3ccccc3n2Cc2ccccc2)C1.O=S(=O)(O)c1cccc2c(S(=O)(=O)O)cccc12`, the “IRF Lucia reporter activity” value (RAW-Dual [2]; library stock concentration (final ~1000-fold dilution): 2 mM, cytotoxicity flag (confluency mask): not cytotoxic) is reported as 1.25.

In the case of `CCOc1ccc(Cc2cc(C3OC(CO)C(O)C(O)C3O)ccc2Cl)cc1` (centres undefined), the “IRF Lucia reporter activity” value (RAW-Dual [2]; [5]) is reported as 0.987.

`CCOc1ccc(Cc2cc(C3OC(CO)C(O)C(O)C3O)ccc2Cl)cc1` (centres undefined) (library stock concentration (final ~1000-fold dilution): 10 mM) was tested, and the “IRF Lucia reporter activity” value (RAW-Dual [1]; [4]) was 1.02 and the “IRF Lucia reporter activity” value (RAW-Dual [1]; agonist: LPS (TLR4) 0.1 ug/mL) was 0.922.

In the case of `Cc1c[nH]c(C=C2C(=O)Nc3ccccc32)c1CCC(=O)O` (library stock concentration (final ~1000-fold dilution): 10 mM), the “IRF Lucia reporter activity” value (RAW-Dual [1]; [4]) is reported as 0.186 and the “IRF Lucia reporter activity” value (RAW-Dual [1]; agonist: LPS (TLR4) 0.1 ug/mL) is reported as 0.728.

For `O=C(CCCCCCCC(=O)NCCO)NCCO` (library stock concentration (final ~1000-fold dilution): 10 mM), the “IRF Lucia reporter activity” value (RAW-Dual [1]; [4]) was 0.904 and the “IRF Lucia reporter activity” value (RAW-Dual [1]; agonist: LPS (TLR4) 0.1 ug/mL) was 1.07.

For `CCN(CC)Cc1ccc(C(=O)N(CCc2ccccc2OC)C2CCNC2)cc1` (centres undefined) (library stock concentration (final ~1000-fold dilution): 10 mM), the “IRF Lucia reporter activity” value (RAW-Dual [1]; [4]) was 0.105 and the “IRF Lucia reporter activity” value (RAW-Dual [1]; agonist: LPS (TLR4) 0.1 ug/mL) was 0.599.

With `CCN(CC)Cc1ccc(C(=O)N(CCc2ccccc2OC)C2CCNC2)cc1` (centres undefined) the “IRF Lucia reporter activity” value (RAW-Dual [2]; [5]) was 0.837.

For `CCN(CCCc1ccccc1)CCCc1ccccc1.O=C(O)CC(O)(CC(=O)O)C(=O)O` (library stock concentration (final ~1000-fold dilution): 10 mM), the “IRF Lucia reporter activity” value (RAW-Dual [3]; [4]) was 0.709 and the “IRF Lucia reporter activity” value (RAW-Dual [3]; agonist: LPS (TLR4) 0.1 ug/mL) was 0.898.

For `CCN(CCCc1ccccc1)CCCc1ccccc1.O=C(O)CC(O)(CC(=O)O)C(=O)O`, the “IRF Lucia reporter activity” value (RAW-Dual [2]; [6]) was 1.11.

`Cc1cc(CS(=O)(=O)c2ccccc2)cc(OCc2ccc(CN3CCCC3CO)cc2)c1` (centres undefined) was tested, and the “IRF Lucia reporter activity” value (RAW-Dual [2]; [5]) was 1.35.

With `Cc1cc(CS(=O)(=O)c2ccccc2)cc(OCc2ccc(CN3CCCC3CO)cc2)c1` (centres undefined) (library stock concentration (final ~1000-fold dilution): 10 mM) the “IRF Lucia reporter activity” value (RAW-Dual [1]; [4]) was 0.272 and the “IRF Lucia reporter activity” value (RAW-Dual [1]; agonist: LPS (TLR4) 0.1 ug/mL) was 1.27.

In the case of `CCc1cc(Nc2nccc(-c3c(-c4ccc(OC)c(C(=O)Nc5c(F)cccc5F)c4)nc4ccccn34)n2)c(OC)cc1N1CCC(N2CCN(S(C)(=O)=O)CC2)CC1`, the “IRF Lucia reporter activity” value (RAW-Dual [2]; [5]) is reported as 1.06.

`CCc1cc(Nc2nccc(-c3c(-c4ccc(OC)c(C(=O)Nc5c(F)cccc5F)c4)nc4ccccn34)n2)c(OC)cc1N1CCC(N2CCN(S(C)(=O)=O)CC2)CC1` (library stock concentration (final ~1000-fold dilution): 10 mM) was tested, and the “IRF Lucia reporter activity” value (RAW-Dual [1]; [4]) was 0.724 and the “IRF Lucia reporter activity” value (RAW-Dual [1]; agonist: LPS (TLR4) 0.1 ug/mL) was 1.28.

`Cc1nc(Nc2n[nH]c3c2CN(C(=O)NC(CN(C)C)c2ccccc2)C3(C)C)c2sccc2n1` (centres undefined) (library stock concentration (final ~1000-fold dilution): 10 mM) was tested, and the “IRF Lucia reporter activity” value (RAW-Dual [3]; [4]) was 0.0178 and the “IRF Lucia reporter activity” value (RAW-Dual [3]; agonist: LPS (TLR4) 0.1 ug/mL) was 0.0152.

For `Cc1nc(Nc2n[nH]c3c2CN(C(=O)NC(CN(C)C)c2ccccc2)C3(C)C)c2sccc2n1` (centres undefined), the “IRF Lucia reporter activity” value (RAW-Dual [2]; [6]) was 0.0215.

In the case of `O=C1c2cccc3c2C(CCC3)CN1C1CN2CCC1CC2` (centres undefined), the “IRF Lucia reporter activity” value (RAW-Dual [2]; [5]) is reported as 0.982.

With `O=C1c2cccc3c2C(CCC3)CN1C1CN2CCC1CC2` (centres undefined) (library stock concentration (final ~1000-fold dilution): 10 mM) the “IRF Lucia reporter activity” value (RAW-Dual [1]; [4]) was 0.379 and the “IRF Lucia reporter activity” value (RAW-Dual [1]; agonist: LPS (TLR4) 0.1 ug/mL) was 0.888.

For `O=C(Nc1ccccc1C(=O)NC1CCCCNC1=O)c1cc2ccccc2s1` (centres undefined) (library stock concentration (final ~1000-fold dilution): 10 mM), the “IRF Lucia reporter activity” value (RAW-Dual [1]; [4]) was 0.887 and the “IRF Lucia reporter activity” value (RAW-Dual [1]; agonist: LPS (TLR4) 0.1 ug/mL) was 2.75.

`NC(=O)C1CCC2CN1C(=O)N2OS(=O)(=O)O` (centres undefined) was tested, and the “IRF Lucia reporter activity” value (RAW-Dual [2]; [5]) was 1.13.

With `NC(=O)C1CCC2CN1C(=O)N2OS(=O)(=O)O` (centres undefined) (library stock concentration (final ~1000-fold dilution): 10 mM) the “IRF Lucia reporter activity” value (RAW-Dual [1]; [4]) was 1.1 and the “IRF Lucia reporter activity” value (RAW-Dual [1]; agonist: LPS (TLR4) 0.1 ug/mL) was 1.21.

Source: the supplement of paper PMC10037445
